Consider 40 compounds from the antibiotic and cytotoxicity screens of Wong et al. (2023).

Some of the results follow.

The subject of one assay is HSkMC (human skeletal muscle cells). The experiment in a line: cytotoxicity call (relative viability < 0.9). The conditions noted are these: 10 µM.
On to `CCCOc1cc(N)ccc1C(=O)OCCN(CC)CC.Cl`, for which the cytotoxicity call was “inactive”.
Same read-out and setting: the result for `COc1ccccc1C(=O)Nc1ccc2c(c1)C(=O)N(C)[C@@H]1CC[C@H](CC(=O)NCc3ccc(Cl)c(Cl)c3)O[C@H]1CO2` reads “inactive”; that for `O=C(NCCN1CCOCC1)[C@@H]1c2ccccc2C(=O)N(C2Cc3ccccc3C2)[C@H]1c1ccc(CO)cc1`, “inactive”; that for `C[C@@H]1CN([C@@H](C)CO)C(=O)c2cc(NS(=O)(=O)c3ccc(F)cc3)ccc2O[C@@H](C)CCCCO[C@@H]1CN(C)C(=O)Nc1ccc(F)cc1`, “inactive”.
Still for that read-out and setting: the result for `Cc1noc(C)c1S(=O)(=O)Nc1ccc2c(c1)C(=O)N([C@@H](C)CO)C[C@H](C)[C@@H](CN(C)Cc1ccc(C(=O)Nc3ccccc3N)cc1)OCCCC[C@@H](C)O2` reads “inactive”.
Still for that read-out and setting: for `C[C@H](CO)N1C[C@H](C)[C@@H](CN(C)S(=O)(=O)c2ccc(Cl)cc2)Oc2ccc(NC(=O)CCCN(C)C)cc2CC1=O` the value was “inactive”.
`COCC#Cc1cnc2c(c1)C(=O)N([C@@H](C)CO)C[C@@H](C)[C@@H](CN(C)C(=O)Nc1ccc(OC)cc1)O2`: the cytotoxicity call was “inactive”.
Same read-out and setting: for `C[C@@H]1CN([C@@H](C)CO)C(=O)c2cc(NS(=O)(=O)c3ccc(F)cc3)ccc2O[C@@H](C)CCCCO[C@@H]1CN(C)S(=O)(=O)c1ccc(Cl)cc1` the value was “inactive”; for `COc1ccc(NC(=O)Nc2ccc3c(c2)C(=O)N([C@H](C)CO)C[C@H](C)[C@H](CN(C)CC2CCCCC2)OCCCC[C@@H](C)O3)cc1`, “inactive”.
The same measure, in the same setting: the result for `COc1cccc(S(=O)(=O)N(C)C[C@@H]2OCc3cnnn3CCCC(=O)N([C@@H](C)CO)C[C@@H]2C)c1` reads “inactive”; that for `COc1ccc(CN(C)C[C@H]2OCCCC[C@@H](C)Oc3ccc(NS(=O)(=O)c4ccc(OC)cc4)cc3C(=O)N([C@H](C)CO)C[C@H]2C)cc1`, “inactive”; that for `CC(=O)N[C@@H](CC(C)C)C(=O)O`, “inactive”.
On the same count and under the same terms, for `O=C(CCCCCNC(=O)OCCCCO[C@@H]1C[C@H](C2CCCCC2)C=C(C(=O)N2CCOCC2)O1)NO` the value was “inactive”.

The test system of a further assay is S. aureus RN4220. As to the kind of experiment: growth inhibition call (relative growth <= 0.2). The conditions noted are these: 50 µM.
As for `O=C(C[C@@H]1CC[C@H]2[C@@H](COC[C@@H](O)CN2S(=O)(=O)c2ccccc2)O1)N1CCc2ccccc2C1`, the growth inhibition call was “inactive”.
On the same count and under the same terms, the result for `CN(C)C(=O)c1ccc(-c2cccc(-c3nc(C(=O)NCc4ccccc4)cc4c3[C@@H](CCO)N([S@@](=O)C(C)(C)C)C4)c2)cc1` reads “inactive”; that for `C[C@H]1CN([C@@H](C)CO)C(=O)c2cc(NS(=O)(=O)c3cn(C)cn3)ccc2O[C@@H]1CN(C)CC1CCCCC1`, “inactive”; that for `CC(C)CN1C(=O)[C@@]2(c3ccc([N+](=O)[O-])cc3)CC(=O)N(CC3C4CC5CC(C4)CC3C5)[C@@H]2c2ccc(CO)cc21` (stereo partly drawn), “inactive”.
On the same count and under the same terms, for `C[C@@H]1CN([C@H](C)CO)S(=O)(=O)c2ccc(-c3cncnc3)cc2O[C@@H]1CN(C)C(=O)CN(C)C` the value was “inactive”.
On the same count and under the same terms, the result for `C[C@@H]1CN([C@H](C)CO)C(=O)c2cccc(NS(=O)(=O)c3cccs3)c2O[C@@H]1CN(C)S(=O)(=O)c1ccc(F)cc1` reads “inactive”; that for `CO[C@H](CN(C)C(=O)Nc1ccc(C(F)(F)F)cc1)[C@@H](C)CN(Cc1ccccc1Cl)[C@@H](C)CO`, “inactive”.
In the case of `CNCc1cccc2ccccc12`, the growth inhibition call was “inactive”.
On the same count and under the same terms, for `O=C1C[C@]2(c3ccc([N+](=O)[O-])cc3)C(=O)N(CC(F)(F)F)c3cc(CO)ccc3[C@H]2N1CC12CC3CC(CC(C3)C1)C2` the value was “inactive”.
With `C[C@@H]1CN([C@H](C)CO)C(=O)c2cc(C#Cc3cccc(F)c3)cnc2O[C@@H]1CN(C)C(=O)C1CCOCC1`, the growth inhibition call is “inactive”.
Still for that read-out and setting: for `COc1ccc(NC(=O)N(C)C[C@H]2OCCCC[C@@H](C)Oc3ccc(NS(=O)(=O)c4cccs4)cc3C(=O)N([C@H](C)CO)C[C@H]2C)cc1` the value was “inactive”; for `COc1cccc(-c2cn(CC[C@@H]3CC[C@H](NC(=O)CN(C)C)[C@H](CO)O3)nn2)c1`, “inactive”; for `C[C@H]1CCCCO[C@H](CN(C)Cc2ccncc2)[C@@H](C)CN([C@@H](C)CO)C(=O)c2cc(NC(=O)Nc3cccc4ccccc34)ccc2O1`, “inactive”.
On the same count and under the same terms, the result for `CC(C)(C)OC(=O)C[C@H]1CC=CC[C@@H](CC(=O)NCCO)C(=O)N[C@@H](Cc2ccccc2)COC1=O` reads “inactive”; that for `Cc1noc(C)c1NC(=O)Nc1cccc2c1O[C@@H](CN(C)Cc1ccc(Oc3ccccc3)cc1)[C@H](C)CN([C@@H](C)CO)C2=O`, “inactive”; that for `CCCNC(=O)N1C[C@]2(CN(C2)S(=O)(=O)c2ccccc2)c2c(n(c3cc(ccc23)OC)C)[C@@H]1CO`, “inactive”.
Regarding `COc1ccc(S(=O)(=O)Nc2ccc3c(c2)C(=O)N([C@H](C)CO)C[C@H](C)[C@H](CN(C)C(=O)c2ccccc2)OCCCC[C@H](C)O3)cc1`, the growth inhibition call is “inactive”.
As for `Cc1noc(C)c1NC(=O)Nc1ccc2c(c1)C(=O)N([C@@H](C)CO)C[C@@H](C)[C@@H](CN(C)C(=O)Nc1ccc(C(F)(F)F)cc1)OCCCC[C@@H](C)O2`, the growth inhibition call is “inactive”.
On the same count and under the same terms, the result for `CC(C)NC(=O)N(C)C[C@@H]1Oc2c(NC(=O)C3CCCCC3)cccc2C(=O)N([C@H](C)CO)C[C@H]1C` reads “inactive”.
On the same count and under the same terms, the result for `C[C@H](CO)N1C[C@H](C)[C@@H](CN(C)S(C)(=O)=O)Oc2ccc(NC(=O)NC3CCCCC3)cc2CC1=O` reads “inactive”; that for `O=C(C[C@H]1CC[C@H]2[C@@H](COC[C@@H](O)CN2S(=O)(=O)c2ccccc2)O1)NCc1ccc2c(c1)OCO2`, “inactive”; that for `C[C@@H]1CN([C@H](C)CO)C(=O)c2cc(NC(=O)Nc3ccc(C(F)(F)F)cc3)ccc2O[C@H]1CN(C)C(=O)Nc1ccc2c(c1)OCO2`, “inactive”.
On the same count and under the same terms, for `C[C@H](CO)N1C[C@H](C)[C@@H](CN(C)S(=O)(=O)c2cn(C)cn2)Oc2ccc(NC(=O)CCC(F)(F)F)cc2C1=O` the value was “inactive”; for `C[C@@H]1O[C@@H](O[C@@H]2CC[C@@]3(C)[C@@H](CC[C@]4(C)[C@@H]3CC=C3[C@@H]5CC(C)(C)CC[C@]5(C(=O)O[C@@H]5O[C@H](CO[C@@H]6O[C@H](CO)[C@@H](O)[C@H](O)[C@H]6O)[C@@H](O)[C@H](O)[C@H]5O)CC[C@]34C)[C@]2(C)CO)[C@H](O)[C@H](O[C@@H]2OC[C@@H](O)[C@H](O)[C@H]2O)[C@H]1O`, “inactive”.
For `CCCCC(O)c1ccccc1` (stereo not drawn), the growth inhibition call is “inactive”.
Same read-out and setting: the result for `C[C@@H]1CCCCO[C@@H](CN(C)C(=O)c2ccccc2)[C@@H](C)CN([C@@H](C)CO)C(=O)c2cc(NS(=O)(=O)c3ccc(Cl)cc3)ccc2O1` reads “inactive”; that for `O=C(/C=C/c1cccc(-c2cn(CC(=O)N3CCC4(CC3)C(=O)NCN4c3ccccc3)nn2)c1)NO`, “inactive”.
The same measure, in the same setting: for `CCCOc1cc(N)ccc1C(=O)OCCN(CC)CC.Cl` the value was “inactive”.
Take `COc1ccccc1C(=O)Nc1ccc2c(c1)C(=O)N(C)[C@@H]1CC[C@H](CC(=O)NCc3ccc(Cl)c(Cl)c3)O[C@H]1CO2`: the growth inhibition call is “inactive”.
Take `O=C(NCCN1CCOCC1)[C@@H]1c2ccccc2C(=O)N(C2Cc3ccccc3C2)[C@H]1c1ccc(CO)cc1`: the growth inhibition call is “inactive”.
Same read-out and setting: the result for `C[C@@H]1CN([C@@H](C)CO)C(=O)c2cc(NS(=O)(=O)c3ccc(F)cc3)ccc2O[C@@H](C)CCCCO[C@@H]1CN(C)C(=O)Nc1ccc(F)cc1` reads “inactive”; that for `Cc1noc(C)c1S(=O)(=O)Nc1ccc2c(c1)C(=O)N([C@@H](C)CO)C[C@H](C)[C@@H](CN(C)Cc1ccc(C(=O)Nc3ccccc3N)cc1)OCCCC[C@@H](C)O2`, “inactive”.
Consider `C[C@H](CO)N1C[C@H](C)[C@@H](CN(C)S(=O)(=O)c2ccc(Cl)cc2)Oc2ccc(NC(=O)CCCN(C)C)cc2CC1=O`, for which the growth inhibition call was “inactive”.
For the compound `COCC#Cc1cnc2c(c1)C(=O)N([C@@H](C)CO)C[C@@H](C)[C@@H](CN(C)C(=O)Nc1ccc(OC)cc1)O2`, the growth inhibition call was “inactive”.
As to `C[C@@H]1CN([C@@H](C)CO)C(=O)c2cc(NS(=O)(=O)c3ccc(F)cc3)ccc2O[C@@H](C)CCCCO[C@@H]1CN(C)S(=O)(=O)c1ccc(Cl)cc1`, the growth inhibition call was “inactive”.
The same measure, in the same setting: for `COc1ccc(NC(=O)Nc2ccc3c(c2)C(=O)N([C@H](C)CO)C[C@H](C)[C@H](CN(C)CC2CCCCC2)OCCCC[C@@H](C)O3)cc1` the value was “inactive”.
For `COc1cccc(S(=O)(=O)N(C)C[C@@H]2OCc3cnnn3CCCC(=O)N([C@@H](C)CO)C[C@@H]2C)c1`, the growth inhibition call was “inactive”.
The same measure, in the same setting: for `COc1ccc(CN(C)C[C@H]2OCCCC[C@@H](C)Oc3ccc(NS(=O)(=O)c4ccc(OC)cc4)cc3C(=O)N([C@H](C)CO)C[C@H]2C)cc1` the value was “inactive”.
`CC(=O)N[C@@H](CC(C)C)C(=O)O`: the growth inhibition call was “inactive”.
The same measure, in the same setting: for `O=C(CCCCCNC(=O)OCCCCO[C@@H]1C[C@H](C2CCCCC2)C=C(C(=O)N2CCOCC2)O1)NO` the value was “inactive”.
